Enrichment ratio data for 306 variants are collected here from a collection of fitness landscapes (doi:10.1126/science.1257360).

The chains are these.
B1: PhoQ; a variant is named by its letters at X, in order, P23837 (parent)
chain: MKKLLRLFFPLSLRVRFLLATAAVVLVLSLAYGMVALIGYSVSFDKTTFRLLRGESNLFYTLAKWENNKLHVELPENIDKQSPTMTLIYDENGQLLWAQRDVPWLMKMIQPDWLKSNGFHEIEADVNDTSLLLSGDHSIQQQLQEVREDDDDAEMTHSVAVNVYPATSRMPKLTIVVVDTIPVELKSSYMVWSWFIYVLSANLLLVIPLLWVAAWWSLRPIEALAKEVRELEEHNRELLNPATTRELTSLVRNLNRLLKSERERYDKYRTTLTDLTHSLKTPLXXLQXXLRSLRSEKMSVSDAEPVMLEQISRISQQIGYYLHRASMRGGTLLSRELHPVAPLLDNLTSALNKVYQRKGVNISLDISPEISFVGEQNDFVEVMGNVLDNACKYCLEFVEISARQTDEHLYIVVEDDGPGIPLSKREVIFDRGQRVDTLRPGQGVGLAVAREITEQYEGKIVAGESMLGGARMEVIFGRQHSAPKDE

The other results are listed elsewhere or left out. A value given as a limit tells only on which side of the number the result lay.

In this assay the parent is B1. Put plainly: enrichment ratio after two sorts for PhoP signalling (ratio (wild type AVST 3.29)); higher = more functional. The settings on record: with PhoP (E. coli).
YACH: the enrichment ratio is 3.26.
On to FFVS, for which the enrichment ratio is not above 0.25.
The value for ESEE was not above 0.25.
The value for YVFR was not above 0.25; that for VSFC was not above 0.25; that for TRVV was 14.5.
On to ADGL, for which the enrichment ratio is not above 0.25.
Regarding WHDH, the enrichment ratio is not above 0.25.
The value for TNTQ was 9.28.
For ADGP, the enrichment ratio is not above 0.25.
FNGN: the enrichment ratio is not above 0.25.
The value for SNCH was 7.35; that for VHIE was not above 0.25.
In the case of ILED, the enrichment ratio is not above 0.25.
The value for NKHT was not above 0.25; that for IMQP was not above 0.25.
Then DYFE, with not above 0.25; and DRTI, with not above 0.25.
The value for LYKP was not above 0.25; that for PGFA was not above 0.25.
As for DAFY, the enrichment ratio was not above 0.25.
For the variant DSYA, the enrichment ratio was not above 0.25.
Consider DIPA, for which the enrichment ratio was not above 0.25.
FKMG: the enrichment ratio was not above 0.25.
Consider KVNQ, for which the enrichment ratio is not above 0.25.
The value for AHDW was not above 0.25; that for FQKW was not above 0.25.
Regarding ARTG, the enrichment ratio is not above 0.25.
Then NRDK, with not above 0.25.
With NDHV, the enrichment ratio was not above 0.25.
Then LRIW, with not above 0.25.
Then YVKF, with not above 0.25.
Then SFQS, with not above 0.25; and MFPT, with not above 0.25; and IQHS, with not above 0.25.
Regarding MHFN, the enrichment ratio is not above 0.25.
Consider MYSD, for which the enrichment ratio was not above 0.25.
With ALRR, the enrichment ratio is not above 0.25.
Consider IKKM, for which the enrichment ratio is not above 0.25.
The value for SVAY was 8.16; that for NAQK was not above 0.25; that for HKTQ was not above 0.25.
Then RKYM, with not above 0.25; and VQYK, with not above 0.25; and DIVK, with not above 0.25.
The value for EFGI was not above 0.25; that for EIAH was not above 0.25; that for PLGT was not above 0.25.
Take RADQ: the enrichment ratio is not above 0.25.
Turning to NMYH, the enrichment ratio was not above 0.25.
DDSV: the enrichment ratio is not above 0.25.
Then MYRQ, with not above 0.25.
Consider AYQL, for which the enrichment ratio was not above 0.25.
The value for DGTT was not above 0.25; that for IPTA was not above 0.25.
Then NAEF, with not above 0.25.
Then DGKK, with not above 0.25; and HITH, with not above 0.25.
KYDM: the enrichment ratio was not above 0.25.
Then HYEH, with not above 0.25; and DWLF, with not above 0.25.
On to NWTI, for which the enrichment ratio is not above 0.25.
The value for FNPH was not above 0.25; that for WKAY was not above 0.25.
For the variant RSWI, the enrichment ratio is not above 0.25.
Then FTVK, with not above 0.25; and VVIS, with not above 0.25; and EGRP, with not above 0.25.
Regarding RMWM, the enrichment ratio was not above 0.25.
The value for VEIF was not above 0.25.
For the variant KLMV, the enrichment ratio was not above 0.25.
Regarding LYFH, the enrichment ratio is not above 0.25.
The value for YLPV was not above 0.25; that for FEQV was not above 0.25; that for YERH was not above 0.25.
Then MPEY, with not above 0.25; and RRAA, with not above 0.25; and HTTP, with not above 0.25.
Then NYTI, with not above 0.25; and LGNS, with not above 0.25.
Take EAMT: the enrichment ratio was not above 0.25.
EGWV: the enrichment ratio is not above 0.25.
The value for ASEC was not above 0.25; that for EFPE was not above 0.25.
The value for TEKL was not above 0.25; that for DHKV was not above 0.25; that for PVVN was not above 0.25.
Then RVVR, with not above 0.25; and PMIT, with not above 0.25; and FVPI, with not above 0.25.
On to RQAN, for which the enrichment ratio is not above 0.25.
The value for TLII was not above 0.25; that for FWGI was not above 0.25; that for EFWK was not above 0.25.
Then QSPC, with not above 0.25; and IQYE, with not above 0.25; and ANDN, with not above 0.25.
For the variant WGYW, the enrichment ratio is not above 0.25.
With TGLR, the enrichment ratio amounted to 1.32.
The value for ELRP was not above 0.25.
Regarding FGFR, the enrichment ratio is not above 0.25.
The value for DGAM was not above 0.25; that for LDGG was not above 0.25; that for FDWV was 0.293.
Then PLRI, with not above 0.25; and LKDR, with not above 0.25; and HSNS, with not above 0.25.
Turning to PSWP, the enrichment ratio is not above 0.25.
Then TEWH, with 35.2; and EKYT, with not above 0.25.
The value for LAKY was not above 0.25; that for FGYG was not above 0.25; that for EYSG was not above 0.25.
In the case of RVRT, the enrichment ratio is not above 0.25.
As for AESI, the enrichment ratio turned out to be 25.1.
On to QPNS, for which the enrichment ratio was not above 0.25.
As to IYML, the enrichment ratio was not above 0.25.
Then SFRP, with not above 0.25; and QQSA, with not above 0.25.
The value for VIWK was not above 0.25.
Then AVHM, with not above 0.25; and RQAT, with not above 0.25.
Consider AMPC, for which the enrichment ratio was not above 0.25.
Then VMRW, with not above 0.25.
Then WPDC, with not above 0.25; and TMMS, with 14.5; and GKYL, with not above 0.25.
Regarding WCGL, the enrichment ratio is not above 0.25.
Then HLHL, with not above 0.25; and RNDI, with not above 0.25.
Regarding NTLK, the enrichment ratio is not above 0.25.
As to PWDC, the enrichment ratio was not above 0.25.
For the variant VNDH, the enrichment ratio was not above 0.25.
Take NVHV: the enrichment ratio was not above 0.25.
Consider VWEC, for which the enrichment ratio was not above 0.25.
The value for VPTY was not above 0.25; that for TCFA was not above 0.25; that for EGFI was not above 0.25.
Then IIGN, with not above 0.25.
Turning to SPHT, the enrichment ratio is not above 0.25.
For the variant YAYE, the enrichment ratio is not above 0.25.
Regarding IMGG, the enrichment ratio was not above 0.25.
Turning to NEDF, the enrichment ratio was not above 0.25.
As for IKLG, the enrichment ratio was not above 0.25.
Then WAYW, with not above 0.25.
The value for IEHF was not above 0.25; that for PSHV was not above 0.25; that for GLSM was 12.3.
With LRYL, the enrichment ratio was not above 0.25.
Then KGRC, with not above 0.25; and PRAK, with not above 0.25.
The value for QGWS was 20.8.
On to YPIP, for which the enrichment ratio is not above 0.25.
Then VAYY, with not above 0.25; and TRMK, with not above 0.25; and ESRC, with not above 0.25.
Turning to FEND, the enrichment ratio was not above 0.25.
Then KTEA, with not above 0.25; and YPCC, with not above 0.25.
In the case of SAGM, the enrichment ratio was 12.9.
Consider PPCD, for which the enrichment ratio was not above 0.25.
Then DWFP, with not above 0.25.
Then VSIM, with 5.33; and HFHP, with not above 0.25.
The value for WVLM was not above 0.25.
For the variant YDRN, the enrichment ratio is not above 0.25.
Then NALH, with not above 0.25; and IKCL, with not above 0.25.
On to AMHG, for which the enrichment ratio is not above 0.25.
As to RWNT, the enrichment ratio was not above 0.25.
The value for DQAL was not above 0.25; that for NDVM was not above 0.25; that for SWFL was not above 0.25.
On to ISHM, for which the enrichment ratio was not above 0.25.
For the variant MGSW, the enrichment ratio was not above 0.25.
Turning to DESF, the enrichment ratio is not above 0.25.
The value for GVTM was 8.91; that for NLLS was not above 0.25; that for RNIV was not above 0.25.
As for PDLY, the enrichment ratio worked out at 0.513.
Then SDER, with not above 0.25; and YRWE, with not above 0.25.
Then IGVY, with not above 0.25; and YHVY, with not above 0.25; and TQLT, with 18.8.
The value for GADQ was not above 0.25.
As to TVSR, the enrichment ratio was 11.1.
The value for IIRF was not above 0.25.
The value for YKLY was not above 0.25; that for EILM was not above 0.25; that for DWKN was not above 0.25.
Consider EAGC, for which the enrichment ratio is not above 0.25.
The value for FKPS was not above 0.25.
Then AAVW, with not above 0.25; and PDNA, with not above 0.25.
The value for IHIS was not above 0.25.
For GLCF, the enrichment ratio is 5.36.
Then TPAM, with not above 0.25; and IEDM, with not above 0.25; and VHDM, with not above 0.25.
Regarding GLCD, the enrichment ratio was not above 0.25.
The value for ARTY was not above 0.25.
Then GWNC, with not above 0.25; and DVCG, with not above 0.25.
Consider ELSS, for which the enrichment ratio is not above 0.25.
Take AQEP: the enrichment ratio is not above 0.25.
The value for RKVG was not above 0.25; that for QNCH was not above 0.25; that for MTVF was 2.09.
The value for WEKY was not above 0.25; that for SNQA was not above 0.25; that for IIVM was not above 0.25.
Turning to EGDR, the enrichment ratio is not above 0.25.
The value for EYNK was not above 0.25.
The value for WYCH was not above 0.25.
Consider HGSH, for which the enrichment ratio is not above 0.25.
Then TYPY, with not above 0.25; and LPKE, with not above 0.25.
For ADTN, the enrichment ratio is not above 0.25.
The value for SQPK was not above 0.25; that for PLLG was not above 0.25; that for DQRD was not above 0.25.
Then PQEN, with not above 0.25; and SSGV, with 8.14.
Turning to YWAC, the enrichment ratio was not above 0.25.
Regarding LGRM, the enrichment ratio is not above 0.25.
Then GYAG, with not above 0.25; and DILW, with not above 0.25; and FFLM, with not above 0.25.
As to FAAI, the enrichment ratio is not above 0.25.
The value for YIQF was 0.38.
The value for PCDV was not above 0.25.
With VTPT, the enrichment ratio is not above 0.25.
For THLT, the enrichment ratio stood at 1.96.
With HDGK, the enrichment ratio was not above 0.25.
For the variant EMNP, the enrichment ratio was not above 0.25.
WSDH: the enrichment ratio was not above 0.25.
Then APQS, with not above 0.25.
For MLSD, the enrichment ratio was not above 0.25.
As for NVKL, the enrichment ratio is not above 0.25.
As for WYLT, the enrichment ratio was not above 0.25.
Regarding LFVH, the enrichment ratio was not above 0.25.
Take NAAL: the enrichment ratio was not above 0.25.
As for YWHQ, the enrichment ratio is not above 0.25.
For HSSF, the enrichment ratio is not above 0.25.
With DEGR, the enrichment ratio is not above 0.25.
Then NFGD, with not above 0.25.
The value for MVSA was not above 0.25.
Then YGGS, with not above 0.25; and AWCQ, with not above 0.25.
For the variant MGGK, the enrichment ratio is not above 0.25.
With SIGC, the enrichment ratio came to 7.68.
As to AWCF, the enrichment ratio was not above 0.25.
Consider QKFW, for which the enrichment ratio is not above 0.25.
Then DAGK, with not above 0.25.
Then NTAK, with not above 0.25.
Then GCCE, with not above 0.25.
QKPR: the enrichment ratio is not above 0.25.
The value for YYSP was not above 0.25; that for MHCG was not above 0.25; that for KHTL was not above 0.25.
The value for IGRL was not above 0.25; that for RCMP was not above 0.25.
Then RMHR, with not above 0.25; and YDCL, with not above 0.25; and QYER, with not above 0.25.
Regarding HMSR, the enrichment ratio is not above 0.25.
In the case of YGRI, the enrichment ratio was not above 0.25.
For the variant RAND, the enrichment ratio is not above 0.25.
Turning to PSRM, the enrichment ratio is not above 0.25.
In the case of SHMS, the enrichment ratio is not above 0.25.
For NPVD, the enrichment ratio is not above 0.25.
In the case of WPTK, the enrichment ratio is not above 0.25.
With PAAF, the enrichment ratio is not above 0.25.
Then IKYN, with not above 0.25; and IVWC, with not above 0.25; and RMQE, with not above 0.25.
As to QCNN, the enrichment ratio was not above 0.25.
With QDEM, the enrichment ratio is not above 0.25.
The value for LQPE was not above 0.25.
The value for LNQC was not above 0.25; that for WHIN was not above 0.25; that for FDIS was not above 0.25.
Then KDSP, with not above 0.25; and YKNG, with not above 0.25.
SSQH: the enrichment ratio stood at 0.704.
For GFNA, the enrichment ratio was not above 0.25.
Consider KRDR, for which the enrichment ratio was not above 0.25.
Then NVMW, with not above 0.25; and PGIL, with not above 0.25.
The value for RFKS was not above 0.25; that for WTFV was not above 0.25; that for EMEI was not above 0.25.
Then PRNV, with not above 0.25.
Turning to EGDT, the enrichment ratio is not above 0.25.
NISC: the enrichment ratio is 2.97.
The value for SNAN was 6.54; that for RKMI was not above 0.25.
As for TVND, the enrichment ratio is not above 0.25.
The value for IMYT was not above 0.25.
The value for MPMT was not above 0.25; that for QSSH was 2.99.
The value for SFRG was not above 0.25; that for GNNP was not above 0.25; that for YSMY was not above 0.25.
With TYCY, the enrichment ratio turned out to be 2.04.
